Literature values in paper PMC7035970 (Cell chemical biology, 2019).

Test system: M. tuberculosis H37Rv
Settings: mouse; cited from earlier work

For `O=[N+]([O-])c1ccc(/C=N/Nc2nc(Nc3ccccc3)nc(Nc3ccccc3)n2)o1` [JSF-2019, (E)-6-(2-((5-nitrofuran-2-yl)methylene)hydrazinyl)-N2,N4-diphenyl-1,3,5-triazine-2,4-diamine], which “in vivo efficacy in acute M. tuberculosis infection model” value is on record?
The value was “lacked in vivo efficacy”.
